The campaign covered roughly 310,000 compounds. About 14,000 (4.5%) showed an effect of 50% or more. Effects have a minus sign here. The list shows a part of the results.
Biological target: human ether-à-go-go-related gene (hERG) potassium channel (human, UniProt Q12809)
Test: primary screen, population patch clamp on CHO cells stably expressing hERG
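Also: peak tail current of the secondary pulse compared with the same well before compound.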

human ether-à-go-go-related gene (hERG) potassium channel, sequence (Q12809 whole entry, looked up): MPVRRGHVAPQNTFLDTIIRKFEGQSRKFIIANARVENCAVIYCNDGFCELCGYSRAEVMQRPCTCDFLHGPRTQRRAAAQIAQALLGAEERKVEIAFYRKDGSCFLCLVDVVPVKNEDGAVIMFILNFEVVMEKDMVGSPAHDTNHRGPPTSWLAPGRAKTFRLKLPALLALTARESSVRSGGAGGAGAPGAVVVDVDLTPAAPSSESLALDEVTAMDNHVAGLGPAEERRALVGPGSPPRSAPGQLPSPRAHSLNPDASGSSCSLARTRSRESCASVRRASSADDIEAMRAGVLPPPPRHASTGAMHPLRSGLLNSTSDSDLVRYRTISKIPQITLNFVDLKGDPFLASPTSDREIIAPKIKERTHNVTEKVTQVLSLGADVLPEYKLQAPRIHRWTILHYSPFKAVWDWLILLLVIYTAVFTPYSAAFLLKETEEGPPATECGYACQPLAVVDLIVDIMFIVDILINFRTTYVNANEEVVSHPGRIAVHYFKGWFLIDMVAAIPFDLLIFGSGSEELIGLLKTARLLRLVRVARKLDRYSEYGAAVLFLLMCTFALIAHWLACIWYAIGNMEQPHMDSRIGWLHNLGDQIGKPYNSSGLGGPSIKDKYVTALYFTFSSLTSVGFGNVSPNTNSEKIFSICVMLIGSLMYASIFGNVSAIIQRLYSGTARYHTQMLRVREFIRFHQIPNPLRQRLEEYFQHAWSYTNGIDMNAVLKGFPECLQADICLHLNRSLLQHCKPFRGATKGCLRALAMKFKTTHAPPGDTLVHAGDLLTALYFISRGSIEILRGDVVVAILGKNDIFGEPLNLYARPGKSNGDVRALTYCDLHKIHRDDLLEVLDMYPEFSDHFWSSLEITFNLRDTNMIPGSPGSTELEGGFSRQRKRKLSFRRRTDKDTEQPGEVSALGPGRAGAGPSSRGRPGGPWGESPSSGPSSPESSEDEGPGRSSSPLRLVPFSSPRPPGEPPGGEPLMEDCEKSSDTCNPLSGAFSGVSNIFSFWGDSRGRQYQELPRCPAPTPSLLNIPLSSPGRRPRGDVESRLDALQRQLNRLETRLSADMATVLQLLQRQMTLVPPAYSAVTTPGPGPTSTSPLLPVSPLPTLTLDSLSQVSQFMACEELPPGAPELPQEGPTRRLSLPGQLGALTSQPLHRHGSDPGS

Structure (SMILES) | hERG current change (%, negative = inhibition) at 10uM [%]
Cc1ccc(CNS(=O)(=O)c2cn(C)cn2)cc1 | -33.8
CCOC(=O)c1cc(C(=O)OCC)cc(-n2c(C)cc(C(=O)CN3CCOCC3)c2C)c1 | -23.4
C=CCN1C(=O)C2(OCCCO2)c2cc(C)ccc21 | 10.5
CN1CCN(CC#CCC2(O)c3ccccc3-c3ccccc32)CC1 | 29.2
O=C(NNC(=S)Nc1ccc(Cl)c(Cl)c1)c1ccccn1 | 63.6
CCC(=O)c1cn(CC(=O)Nc2ccc(OC)cc2)c2ccccc12 | -0.605
Cc1[nH]c2ccccc2c1C(=O)COC(=O)CCS(=O)(=O)c1ccccc1Cl | -14.4
Cc1ccc(SCC(=O)NNC(=O)c2ccccc2)cc1C | 19.8
COc1ccc(NC(=O)CSc2nc3[nH]c(=O)cc(O)c3s2)c(OC)c1 | 7.66
CC(C)(C)NC(=O)CN(Cc1cccs1)C(=O)C1COc2ccccc2O1 (stereo not shown) | -14.7
Cc1cc(C)n2nc(-c3cnn(C)c3C(F)(F)F)c(Cl)c2n1 | -11.2
COc1ccc(C(=O)C[n+]2ccccc2C)cc1.[Br-] | 13.3
O=C(CN1C(=O)NC2(CCCCC2)C1=O)Nc1cccc(S(=O)(=O)N2CCOCC2)c1 | 4.29
COC(=O)c1cn(NC(=O)C2CCC(C)CC2)c(=O)c2ccccc12 (stereo not shown) | 16.8
C=CCNS(=O)(=O)c1cc2c3c(c1)CCN3C(=O)CC2 | 18.1
Cc1ccc(N2CCN(C(=O)CNS(=O)(=O)c3ccc(Br)s3)CC2C)cc1 (stereo not shown) | -15.8
CN1c2ccccc2N(C)C1c1ccc2c(c1)OCO2 | 14.2
O=C(O)CC1(CC(=O)NCc2ccc(C(F)(F)F)cc2)CCCCC1 | 5.6
CCOc1cc(/C=C(\C#N)C(=O)NCC2CCCO2)ccc1O (stereo not shown) | -3.03
CCCN(CCC)C(=S)Nc1cc(C(=O)OC)ccc1C(=O)OC | -38.2
CCN(CC(=O)Nc1c(F)cccc1F)C(=O)c1cnc(C)cn1 | 3.9
COCCNC(=O)c1ccc(NS(=O)(=O)c2ccc3[nH]c(=O)[nH]c3c2)cc1 | 23.9
CCC(C)(C(=O)NC1CCCCC1)N(C(=O)c1cnccn1)c1c(C)n(C)n(-c2ccccc2)c1=O (stereo not shown) | -4.76
Cc1ccc(C(=O)NC2CCN(S(=O)(=O)c3ccccc3)CC2)cc1 | 13.1
COc1ccccc1CN1C[C@@H]2C[C@@H](c3cccc(C)n3)N3CCC[C@@]23C1=O | -4.91
